Measurements: PubChem BioAssay AID1347165 (National Center for Advancing Translational Sciences (NCATS), 2019)
In all, about 220,000 compounds went through this assay and about 5,700 (2.6%) were called active. The shares of active, inactive and inconclusive entries below differ from those in the screen. Calls come from the whole dose curve; as a rule, active = well fitted inhibition curve with a large enough effect; inconclusive = small, poorly fitted or top-dose-only effect; inactive = no such curve, though single readings can be large or run the other way. Potencies of inconclusive entries are doubtful fits and often do not repeat.

molecular target: Lysine-specific demethylase 5B (Homo sapiens) (UniProt Q9UGL1); experiment: Primary screen for KDM5B Histone Demethylases FDH-coupled qHTS; conditions: FDH-coupled NADH fluorescence (FDH is formaldehyde dehydrogenase); activity change, negative = inhibition: at 57.7 µM (top of the series); note: nearly all actives have a fitted effect of over 70% in size; for activity change, negative = inhibition: 0% is about no effect
UniProt Q9UGL1, sequence (Q9UGL1 whole entry, looked up, the tested form may be a part): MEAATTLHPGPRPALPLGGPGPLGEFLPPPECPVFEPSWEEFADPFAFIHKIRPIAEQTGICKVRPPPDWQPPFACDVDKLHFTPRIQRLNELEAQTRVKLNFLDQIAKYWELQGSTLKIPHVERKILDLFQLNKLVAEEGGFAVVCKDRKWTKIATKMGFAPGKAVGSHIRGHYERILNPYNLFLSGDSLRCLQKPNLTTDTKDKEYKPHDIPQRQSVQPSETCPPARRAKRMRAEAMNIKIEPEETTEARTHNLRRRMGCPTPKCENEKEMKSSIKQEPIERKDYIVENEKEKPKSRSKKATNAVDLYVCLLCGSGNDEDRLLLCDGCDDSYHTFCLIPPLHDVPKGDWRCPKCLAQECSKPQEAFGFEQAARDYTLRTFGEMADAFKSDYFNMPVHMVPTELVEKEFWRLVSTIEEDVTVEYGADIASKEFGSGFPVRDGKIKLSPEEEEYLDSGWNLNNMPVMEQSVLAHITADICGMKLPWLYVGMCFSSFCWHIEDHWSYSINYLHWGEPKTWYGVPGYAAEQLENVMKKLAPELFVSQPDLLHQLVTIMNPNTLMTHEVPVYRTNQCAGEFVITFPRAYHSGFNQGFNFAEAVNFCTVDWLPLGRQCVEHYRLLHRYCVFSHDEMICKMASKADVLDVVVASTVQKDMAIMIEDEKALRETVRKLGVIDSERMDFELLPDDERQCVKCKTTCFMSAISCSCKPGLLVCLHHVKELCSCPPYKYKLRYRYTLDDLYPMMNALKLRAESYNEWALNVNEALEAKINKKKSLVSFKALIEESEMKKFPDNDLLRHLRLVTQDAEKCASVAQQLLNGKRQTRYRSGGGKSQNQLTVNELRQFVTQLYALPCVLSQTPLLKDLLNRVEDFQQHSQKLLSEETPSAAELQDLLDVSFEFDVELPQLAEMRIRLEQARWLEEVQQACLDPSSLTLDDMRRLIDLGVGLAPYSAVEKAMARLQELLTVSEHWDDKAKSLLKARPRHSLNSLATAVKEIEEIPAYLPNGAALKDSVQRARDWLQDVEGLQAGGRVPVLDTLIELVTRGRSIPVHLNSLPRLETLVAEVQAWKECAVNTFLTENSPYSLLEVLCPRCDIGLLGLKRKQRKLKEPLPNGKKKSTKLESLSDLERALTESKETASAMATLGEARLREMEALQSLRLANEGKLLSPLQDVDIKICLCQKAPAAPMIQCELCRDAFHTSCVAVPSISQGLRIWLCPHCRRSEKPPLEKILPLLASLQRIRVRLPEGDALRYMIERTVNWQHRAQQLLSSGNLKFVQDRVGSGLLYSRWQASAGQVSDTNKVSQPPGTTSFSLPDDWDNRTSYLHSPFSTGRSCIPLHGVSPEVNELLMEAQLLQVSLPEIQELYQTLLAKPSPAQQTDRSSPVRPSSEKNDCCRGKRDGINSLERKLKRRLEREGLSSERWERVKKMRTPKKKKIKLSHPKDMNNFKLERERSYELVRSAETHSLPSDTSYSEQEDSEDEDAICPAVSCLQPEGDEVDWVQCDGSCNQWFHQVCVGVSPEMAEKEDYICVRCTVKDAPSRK
Procedure, shortened: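 Inhibition is measured as reduced NADH fluorescence generation from FDH coupling to formaldehyde release. Truncated KDM5BΔAP at 200 nM final acts on H3K4me3 peptide (12.5 µM in substrate mix) in pH 7.5 HEPES buffer with Tween-20, 30 min, room temperature.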
Potency is the fitted concentration of half-maximal effect; tags give direction and shape of the fitted curve.

Q: For `Oc1ccc(-c2ccccc2)cc1`, which Potency is on record?
A: The Potency was inconclusive: 28.2 µM [inhibitor, single point].

Q: `Cc1ccccc1-n1c(/C=C/c2ccccc2F)nc2ccccc2c1=O` was tested. Which Potency did it give?
A: Its Potency is inconclusive: 31.6 µM [inhibitor, single point].

Q: With `CCCOC(=O)c1ccc(Oc2coc3cc(OC(=O)N(C)C)ccc3c2=O)cc1` as the compound, how does the Potency read?
A: Its Potency is “inactive”.

Q: With `COc1cc2c(cc1Oc1ccccc1)NC(=O)C21CCN(c2ncc(F)cn2)CC1` as the compound, how does the Potency read?
A: The Potency was active: 31.6 µM.

Q: `CC(C)(C)CC(=O)N1C[C@@H]2C[C@H](C1)c1ccc(NC(=O)Nc3cccc(F)c3)c(=O)n1C2` was tested. Which Potency did it give?
A: Its Potency is active: 28.2 µM.

Q: For `O=C(Cc1ccccc1)N1Cc2ccccc2CC2(CCCCN2Cc2ccccn2)C1` (centres undefined), which Potency is on record?
A: Its Potency is inconclusive: 50.1 µM [inhibitor, partial curve, poor fit].

Q: Which Potency does the source give for `Cc1ccc2scc(N3CCN(C)CC3)c(=O)c2c1` here?
A: Its Potency is inconclusive: 15.8 µM [inhibitor, partial curve, poor fit].

Q: `COc1cc2c(cc1OCc1ccccc1)N(C(=O)c1c[nH]c3ccccc13)CC21CCN(C)CC1` was tested. Which Potency did it give?
A: The Potency was “inactive”.

Q: With `COCc1cn(C[C@H]2CC3CCN2C[C@@H]3C(=O)NC2CCCCC2)nn1` (some centres undefined) as the compound, how does the Potency read?
A: The Potency was “inactive”.

Q: For `CN1CCNc2cc(Nc3ccncc3)ncc2C1`, which Potency is on record?
A: Its Potency is inconclusive: 31.6 µM [inhibitor, partial curve, poor fit].

Q: For `C=CCn1c(C)c(C(=O)OCC)c2cc(O)ccc21`, which Potency is on record?
A: Its Potency is “inactive”.

Q: How did the Potency turn out when `CCCNC(=O)OC[C@H]1C[C@@H]2CCN1C[C@@H]2c1cc(-c2ccc(F)cc2)nc(C)n1` was run?
A: The Potency was “inactive”.

Q: `O=C(c1ccccc1)N1C[C@@H]2C[C@H](C1)c1c(/C=C/c3ccc(Cl)cc3)ccc(=O)n1C2` was tested. Which Potency did it give?
A: The Potency was active: 35.5 µM.

Q: For `FC(F)(F)CN1C2CCC1CN(c1nccc(Cl)n1)C2`, which Potency is on record?
A: The Potency was “inactive”.

Q: Which Potency does the source give for `Cc1nc(-c2ccccc2)cc([C@H]2CN3CC[C@H]2C[C@@H]3CNC(=O)c2ccco2)n1` here?
A: The Potency was inconclusive: 28.2 µM [inhibitor, single point].

Q: Which Potency does the source give for `CC(=O)c1ccc(NC(=O)c2sc3nc4c(cc3c2N)N2CCC4CC2)cc1` here?
A: The Potency was inconclusive: 11.2 µM [inhibitor, partial curve, poor fit].

Q: For `COCc1nnc2n1CCC(NC(=O)c1nn(C)c3ccccc13)CC2` (centres undefined), which Potency is on record?
A: Its Potency is active: 28.2 µM.

Q: Which Potency does the source give for `COc1ccc(-c2cc([C@H]3CN4CC[C@H]3C[C@@H]4CNC(=O)C(C)(C)C)nc(C)n2)cc1OC` here?
A: Its Potency is active: 31.6 µM.

Q: For `CCOc1ccc(CN2C(=O)c3ccccc3Sc3ccc(C(=O)N4CCC5(CC4)OCCO5)cc32)cc1`, which Potency is on record?
A: The Potency was inconclusive: 11.2 µM [inhibitor, partial curve, poor fit].

Q: Which Potency does the source give for `N#Cc1cccc(-c2ccc(=O)n3c2[C@@H]2C[C@@H](CN(C(=O)NC4CCCCC4)C2)C3)c1` here?
A: Its Potency is inconclusive: 39.8 µM [inhibitor, single point].

Q: `COc1ccc(C(=O)N2CCC3(CC2)c2nccn2-c2ccccc2CN3C)cc1OC` was tested. Which Potency did it give?
A: The Potency was “inactive”.

Q: `COC1C(=O)N(CC2CC2)C12CCNCC2` (centres undefined) was tested. Which Potency did it give?
A: The Potency was inconclusive: 35.5 µM [inhibitor, partial curve, poor fit].

Q: `COC[C@H]1CCCN1C[C@H]1CN2CC[C@H]1C[C@@H]2CNC(=O)Nc1ccsc1` was tested. Which Potency did it give?
A: Its Potency is “inactive”.

Q: `c1ccc(Nc2cc3c(cn2)CN(CC2CC2)CCN3)cc1` was tested. Which Potency did it give?
A: Its Potency is inconclusive: 39.8 µM [inhibitor, partial curve, poor fit].

Q: `NC(=O)c1ccc(NC(=O)c2cccn(Cc3ccccc3)c2=O)cc1` was tested. Which Potency did it give?
A: Its Potency is inconclusive: 31.6 µM [inhibitor, partial curve, poor fit].

Q: `CCOc1ccc(C(=O)N2CCC3(CC2)NCc2ccccc2-n2ccnc23)cc1` was tested. Which Potency did it give?
A: The Potency was “inactive”.

Q: Which Potency does the source give for `Cc1nc(-c2cccs2)cc([C@H]2CN3CC[C@H]2C[C@@H]3COC(=O)Nc2cccc(C(F)(F)F)c2)n1` here?
A: Its Potency is inconclusive: 25.1 µM [inhibitor, partial curve, poor fit].

Q: Which Potency does the source give for `COc1cccc([C@H]2CN(C(=O)OCC(C)C)[C@@H]3C4CCN(CC4)[C@H]23)c1` here?
A: The Potency was “inactive”.

Q: Which Potency does the source give for `O=c1c2ccccc2nc(/C=C\c2cccc(Br)c2)n1-c1ccc(O)cc1` here?
A: Its Potency is inconclusive: 39.8 µM [inhibitor, single point].

Q: How did the Potency turn out when `CN1CCN2c3ccc(N)cc3CC3(C(=O)NC(=O)NC3=O)C2C1` (centres undefined) was run?
A: The Potency was inconclusive: 28.2 µM [inhibitor, single point].

Q: How did the Potency turn out when `CCn1cc(C(=O)Nc2cccc3ncccc23)c2ccccc21` was run?
A: Its Potency is inconclusive: 25.1 µM [inhibitor, single point].

Q: With `CN(C)CC(=O)Nc1ccc2n(c1=O)C[C@H]1C[C@@H]2CN(S(=O)(=O)c2ccccc2)C1` as the compound, how does the Potency read?
A: Its Potency is inconclusive: 20 µM [inhibitor, partial curve, poor fit].

Q: For `COc1ccc(CN(Cc2ccc(OC)cc2)C[C@H]2C[C@@H]3CCN2C[C@@H]3c2cc(C3CCCC3)nn2C)cc1`, which Potency is on record?
A: The Potency was “inactive”.

Q: How did the Potency turn out when `CCCn1cc(C(=O)NCC2CCCN2CC)c2ccccc21` (centres undefined) was run?
A: Its Potency is “inactive”.

Q: Which Potency does the source give for `C#C[C@H]1CN2CC[C@H]1C[C@@H]2CNC(=O)c1ccc2c(c1)OCO2` here?
A: Its Potency is “inactive”.

Q: For `COc1cc2c(cc1Oc1cccc(N(C)C)c1)NC(=O)C21CCN(CC2CC2)CC1`, which Potency is on record?
A: The Potency was “inactive”.

Q: How did the Potency turn out when `CN1CCC2(CC1)NC(=O)c1ccccc1N2` was run?
A: The Potency was inconclusive: 20 µM [inhibitor, partial curve, poor fit].

Q: Which Potency does the source give for `FC(F)(F)CN1C2CCC1CN(c1cncc(Br)c1)C2` here?
A: The Potency was “inactive”.

Q: `CC(=O)N1CC2(CCN(Cc3ccccn3)C2)Cc2ccccc21` (centres undefined) was tested. Which Potency did it give?
A: Its Potency is inconclusive: 56.2 µM [inhibitor, partial curve].

Q: For `Cc1ccc(C)c(CN2C(=O)c3ccccc3Sc3ccc(C(=O)N4CCC5(CC4)OCCO5)cc32)c1`, which Potency is on record?
A: Its Potency is inconclusive: 25.1 µM [inhibitor, single point].

Q: Which Potency does the source give for `Clc1ccc(-c2nc3ccc(Cl)cn3c2CN2CCCCC2)cc1` here?
A: Its Potency is inconclusive: 39.8 µM [inhibitor, single point].

Q: `COc1cncc(CN2CCC3(CC2)C(=O)Nc2cc(OC4CCCC4)c(OC)cc23)c1` was tested. Which Potency did it give?
A: The Potency was inconclusive: 28.2 µM [inhibitor, single point].

Q: How did the Potency turn out when `CC(C)CCN1CC2(C1)C(=O)Nc1ccccc12` was run?
A: The Potency was “inactive”.

Q: `COc1cc2c(cc1Oc1ccccc1)NC(=O)C21CCN(c2cnccn2)CC1` was tested. Which Potency did it give?
A: The Potency was active: 31.6 µM.

Q: Which Potency does the source give for `COc1cc2c(cc1OC1CCCC1)NC(=O)C21CCN(c2cnccn2)CC1` here?
A: The Potency was inconclusive: 28.2 µM [inhibitor, single point].

Q: For `COc1ccc(CCNCc2ccccc2F)cc1OC`, which Potency is on record?
A: The Potency was inconclusive: 20 µM [inhibitor, partial curve, poor fit].

Q: Which Potency does the source give for `CN1CCN(C(=O)Cc2c[nH]c3ncc(-c4ccccc4Oc4ccccc4)cc23)CC1` here?
A: The Potency was active: 39.8 µM.

Q: `Cc1cccc(CN2C(=O)CN=C(c3ccccc3Cl)c3cc(Cl)ccc32)c1` was tested. Which activity change, negative = inhibition did it give?
A: Its activity change, negative = inhibition is inconclusive: -35.7% [inhibitor].

Q: For `CCn1c(CO)nnc1C1CC(NC(=O)c2cnn(Cc3ccccc3)c2)C1` (centres undefined), which Potency is on record?
A: The Potency was “inactive”.

Q: Which Potency does the source give for `O=[N+]([O-])c1ccc(NC2CCN(Cc3ccccc3)CC2)c2ccncc12` here?
A: Its Potency is inconclusive: 39.8 µM [inhibitor, single point].

Q: How did the Potency turn out when `CCCCCCC(Cl)(Cn1ccnc1)c1ccccc1` (centres undefined) was run?
A: Its Potency is inconclusive: 39.8 µM [inhibitor, single point].

Q: With `COc1cc(C2SCC(=O)Nc3[nH]ncc32)ccc1OCC(C)C` (centres undefined) as the compound, how does the Potency read?
A: Its Potency is “inactive”.

Q: How did the Potency turn out when `O=C1Nc2ccccc2C1Cc1nc2ccccc2c(=O)n1-c1ccccc1` (centres undefined) was run?
A: The Potency was inconclusive: 25.1 µM [inhibitor, single point].

Q: For `COc1ccccc1-c1cc([C@H]2CN3CC[C@H]2C[C@@H]3COC(=O)Nc2ccccc2)nc(C)n1`, which Potency is on record?
A: Its Potency is inconclusive: 35.5 µM [inhibitor, partial curve, poor fit].

Q: `CN(C)c1ccc(/C=C2\C(=O)NC(=O)N(CCc3ccc(F)cc3)C2=O)cc1` was tested. Which Potency did it give?
A: The Potency was inconclusive: 12.6 µM [inhibitor, partial curve, poor fit].

Q: Which Potency does the source give for `Nc1ccccc1-c1ccccc1` here?
A: The Potency was inconclusive: 25.1 µM [inhibitor, single point].

Q: How did the Potency turn out when `Cn1cccc1CN1CCC2(COc3ccncc3[S+](=O)([O-])N2)C1` (centres undefined) was run?
A: The Potency was inconclusive: 39.8 µM [inhibitor, partial curve].

Q: `COc1cc2c(cc1Oc1ccccc1)NC(=O)C21CCN(c2nc(C)cc(C)n2)CC1` was tested. Which Potency did it give?
A: The Potency was inconclusive: 28.2 µM [inhibitor, partial curve].

Q: How did the Potency turn out when `COc1ccccc1-n1c(/C=C/c2ccccc2)nc2ccccc2c1=O` was run?
A: The Potency was “inactive”.

Q: With `Cc1nc(-c2ccco2)cc([C@H]2CN3CC[C@H]2C[C@@H]3CNC(=O)NC2CCCCC2)n1` as the compound, how does the Potency read?
A: The Potency was active: 31.6 µM.

Q: `Cc1ccc(C(=O)N2[C@H]3CC[C@@H]2c2cnc(-c4ccccc4)nc2C3)c(C)c1` was tested. Which Potency did it give?
A: Its Potency is “inactive”.

Q: `CCc1ccc(C2SCC(=O)Nc3n[nH]c(C)c32)cc1` (centres undefined) was tested. Which Potency did it give?
A: The Potency was inconclusive: 28.2 µM [inhibitor, single point].

Q: Which Potency does the source give for `Cc1nc(-c2ccc(C(F)(F)F)cc2)cc([C@H]2CN3CC[C@H]2C[C@@H]3CNC(=O)c2ccco2)n1` here?
A: Its Potency is “inactive”.

Q: For `C#C[C@H]1CN2CC[C@H]1C[C@@H]2CNC(=O)Nc1cccc(C(F)(F)F)c1`, which Potency is on record?
A: The Potency was “inactive”.

Q: For `CCCN1CC2ON=C(C(=O)O)C2C1` (centres undefined), which Potency is on record?
A: Its Potency is inconclusive: 141 µM [inhibitor, single point].

Q: How did the Potency turn out when `Cn1cc(CN2CCN3C(=O)N(Cc4ccccn4)C[C@H]3C2)cn1` was run?
A: The Potency was “inactive”.

Q: `COc1ccc(-n2c(/C=C/c3ccc(O)c(O)c3)nc3ccccc3c2=O)cc1` was tested. Which Potency did it give?
A: Its Potency is inconclusive: 28.2 µM [inhibitor, partial curve, poor fit].

Q: For `Cc1nc(-c2ccc(N(C)C)cc2)cc([C@H]2CN3CC[C@H]2C[C@@H]3COC(=O)NC(C)C)n1`, which Potency is on record?
A: Its Potency is active: 28.2 µM.

Q: For `O=C(c1ccccn1)N1C[C@@H]2C[C@H](C1)c1ccc(NS(=O)(=O)c3cccs3)c(=O)n1C2`, which Potency is on record?
A: The Potency was inconclusive: 25.1 µM [inhibitor, single point].
